According to PubChem BioAssay AID360 (National Center for Advancing Translational Sciences (NCATS), 2006):
The campaign covered roughly 48,000 compounds. About 550 (1.1%) were called active. Another 4% or so got no clear call; they are omitted. No stated cut-off is given here; in the data, active means potency below about 15 µM; inconclusive means mostly about 16 µM to 33 µM; inactive means weaker than that. The list shows a part of the results.

Target: Lysosomal acid glucosylceramidase (Homo sapiens) (UniProt P04062)
Sequence of UniProt P04062 (P04062 whole entry, looked up): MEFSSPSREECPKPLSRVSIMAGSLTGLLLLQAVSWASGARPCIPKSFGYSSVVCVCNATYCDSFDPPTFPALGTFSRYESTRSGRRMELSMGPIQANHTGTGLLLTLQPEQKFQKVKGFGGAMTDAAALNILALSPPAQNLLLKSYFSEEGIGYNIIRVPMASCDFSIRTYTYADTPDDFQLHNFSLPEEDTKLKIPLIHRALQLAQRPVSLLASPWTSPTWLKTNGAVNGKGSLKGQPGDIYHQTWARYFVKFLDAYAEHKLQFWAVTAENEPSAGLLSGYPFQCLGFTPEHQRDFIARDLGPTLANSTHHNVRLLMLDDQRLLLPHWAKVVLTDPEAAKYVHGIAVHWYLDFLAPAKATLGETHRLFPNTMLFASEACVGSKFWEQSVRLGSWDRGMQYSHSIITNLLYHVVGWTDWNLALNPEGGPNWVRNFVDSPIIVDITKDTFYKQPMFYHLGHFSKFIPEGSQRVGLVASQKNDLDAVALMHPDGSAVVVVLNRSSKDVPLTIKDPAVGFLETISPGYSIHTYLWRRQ
Experiment: Glucocerebrosidase;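 further: the screen sought inhibitors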
Conditions: purified enzyme, resorufin glucoside fluorescence (screen aimed at inhibitors), 20 min
Method in brief: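 Normal human glucocerebrosidase (0.2 nM final) was assayed with resorufin β-D-glucopyranoside (30 uM final) in 50mM citric acid/KH2PO4, 10mM sodium taurocholate, 0.01% tween-20, pH 5.9. Compounds were titrated; fluorescence (Ex 548, Em 600) read after 20 min at RT.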
Potency means the concentration at half of the fitted maximal effect.

Potency, inactive:
CCN(C(=O)c1coc(=O)c(Br)c1)c1ccc2c(c1)OCO2 > 76.9 µM, Cc1ccccc1CSc1nc2n(n1)C(c1cccs1)C1=C(CCCC1=O)N2 (stereo unspecified) > 76.9 µM, O=C(NCCC1=CCCCC1)c1ccc(Br)o1 > 76.9 µM, Cc1cc(-c2ccccc2C(=O)O)on1 > 76.9 µM, Cc1ccc(-c2ccc(C(=O)O)[nH]2)cc1 > 76.9 µM, COc1ccccc1-n1c(SCC(=O)NC(C)(C)C)nc(O)cc1=O > 76.9 µM, CCOC(=O)c1sc(NC(=O)CSc2nc(-c3ccco3)cc(C(F)(F)F)n2)c(C#N)c1C > 76.9 µM, COc1ccc(C2C=C(c3ccccc3)Nc3nc(CCCO)nn32)cc1 (stereo unspecified) > 76.9 µM, CC1CCCCC1NC(=O)CSc1nnc(CN2CCOCC2)n1C (stereo unspecified) > 76.9 µM, Cc1csc(NC(=O)CCc2nc3ccccc3s2)n1 > 76.9 µM, Cc1nnc(Sc2cc(C(=O)NCc3ccco3)c3ccccc3n2)s1 > 76.9 µM, CCN(C(=O)CSc1nnnn1-c1cc(C)ccc1OC)C1CCS(=O)(=O)C1 (stereo unspecified) > 76.9 µM, COc1ccc(S(=O)(=O)N2CCCCC2)cc1C(C)C > 76.9 µM, Cc1cc(C)n(C(=O)c2ccc(S(=O)(=O)NCC3CCCO3)cc2)n1 (stereo unspecified) > 76.9 µM, COc1ccccc1N1CCN(C(=O)c2ccc(S(=O)(=O)N3CCCCC3)cc2)CC1 > 76.9 µM, O=C(Nc1ccccc1F)C1C2C=CC3(O2)C1C(=O)N(c1cccnc1)C3C(=O)NC1CCCCC1 (stereo unspecified) > 76.9 µM, CCN(CC)S(=O)(=O)c1ccc(C(=O)OCn2nnc3ccccc3c2=O)cc1 > 76.9 µM, O=C(CCN1C(=O)C2CC=C(Cl)CC2C1=O)Nc1ccccc1O (stereo unspecified) > 76.9 µM, Cc1cc(NC(=O)CSc2nnc(-c3cccnc3)n2C)no1 > 76.9 µM, Oc1ccc(Cl)cc1CNc1ccc(Br)cn1, CCOC(=O)CCc1c(C)nc2cc(C3CCCN(C(=O)OC(C)(C)C)C3)[nH]n2c1=O (stereo unspecified) > 76.9 µM, COc1ccc(C(C(C(=O)c2ccco2)N2CCOCC2)N2CCOCC2)cc1 (stereo unspecified) > 76.9 µM, COc1ccc(NS(=O)(=O)c2ccc(C)c(C(=O)O)c2)cc1 > 76.9 µM, Cc1cccc(N2CCN(C(=O)Cc3c(C(=O)O)[nH]c4ccc(Cl)cc34)CC2)c1C, CCC(=O)N1CCCc2cc(S(=O)(=O)N3CCN(c4ccccn4)CC3)ccc21 > 76.9 µM, Cc1cc(C)nc(-n2nc(C)c(C3(O)C(=O)Nc4ccc(F)cc43)c2N)n1 (stereo unspecified) > 76.9 µM, Cc1cc(C(=O)NCc2ccccc2Br)no1 > 76.9 µM, CCOC(=O)N1CCN(C(=O)CSc2cc(C)nc3c(-c4ccccc4OC)c(C)nn23)CC1 > 76.9 µM, COCc1cc(=O)n2[nH]c(SC)nc2n1 > 76.9 µM, O=C(c1ccc2c(=O)n(-c3ccccc3)c(=O)[nH]c2c1)N1CCCCC1 > 76.9 µM, CCOc1cc(C(=O)Nc2c3c(nn2C(C)(C)C)CS(=O)C3)cc(OCC)c1OCC (stereo unspecified) > 76.9 µM, COc1ccc(C(=O)N=c2nc3ccccn3s2)cc1 > 76.9 µM, CSc1nc(SCC(N)=O)c2c3c(sc2n1)CN(C)CC3 > 76.9 µM, Cc1cccc(C)c1NS(=O)(=O)c1ccc(F)cc1 > 76.9 µM, O=C(CSc1ncc(-c2ccccc2)n1-c1ccccc1)NCc1ccco1 > 76.9 µM, Cc1cc(C)n2nc(C(=O)OCC(=O)c3cc(C)n(C)c3C)nc2n1 > 76.9 µM, COc1cccc(NC(=O)N2CCCC2C(=O)Nc2ccc3c(c2)OCO3)c1 (stereo unspecified) > 76.9 µM, COc1ccccc1CC1(C)NC(=O)N(CC(=O)Nc2cc(C)on2)C1=O (stereo unspecified) > 76.9 µM, COCCCn1c(SCC(=O)Nc2ccc(C(=O)OC)cc2)nc2ccccc2c1=O > 76.9 µM, COC(=O)c1ccc(Cn2cnc3ccccc3c2=O)cc1 > 76.9 µM, CCOC(=O)C1C(=O)CC(O)(c2ccccc2)CC1c1ccccc1 (stereo unspecified) > 76.9 µM, O=C(Nc1cccc(OCC(=O)N2CCOCC2)c1)C1CCCCC1 > 76.9 µM, O=C(Nc1ccc(F)cc1)N1CCC(c2nc3c(nnn3Cc3cccc(Cl)c3)c(=O)[nH]2)CC1, O=C(CC1NCCNC1=O)OCc1ccccc1 (stereo unspecified) > 76.9 µM, Nc1nc2sc3c(c2c(=O)s1)CCCC3 > 76.9 µM, O=C(c1cccc2c1C(=O)N(Cc1cccnc1)C2)N1CCN(c2ccccc2)CC1 > 76.9 µM, CC(=O)Nc1nnc(Cc2ccccc2)s1 > 76.9 µM, CCn1cc(C(=O)Nc2ccc(-n3cnnn3)c(OC)c2)c(=O)c2ccc(C)nc21 > 76.9 µM, Cc1ccc(-c2cn3nc(C)c(C)nc3n2)cc1 > 76.9 µM, CCOC(=O)CCn1c2nc(C)cc(C)c2c(=O)n1-c1ccccc1 > 76.9 µM, Cc1ccc(C)c2[nH]c(=O)c(CCNC(=O)c3ccc4c(c3)OCO4)cc12 > 76.9 µM, O=C(c1ccc(NS(=O)(=O)c2cccs2)cc1)N1CCCCC1 > 76.9 µM, CCn1nc(C(=O)NCCc2ccc(S(N)(=O)=O)cc2)c2ccccc2c1=O > 76.9 µM, COc1ccc(-c2noc(CCC(=O)Nc3ccc4c(c3)OCCO4)n2)cc1 > 76.9 µM, COc1ccc(C(=O)COC(=O)c2ccc(OC)c(OC)c2)cc1OC > 76.9 µM, COc1cccc(CNc2nc3nc(C)cc(C)n3n2)c1 > 76.9 µM, COc1ccc(Cn2c(=O)sc3ccccc32)cc1 > 76.9 µM, Cc1ccc(NC(=O)CSc2nnc(CNC(=O)c3c(F)cccc3Cl)o2)cc1 > 76.9 µM, COc1ccc(C(=O)NCc2nnc(SCC(=O)N3CCc4ccccc43)o2)cc1OC > 76.9 µM, CCN(CC)c1ccc(C2NC(=O)NC(C)=C2C(=O)Nc2ccccc2)cc1 (stereo unspecified) > 76.9 µM, C=CCn1c(SCC(=O)Nc2ccc3c(c2)OCO3)nnc1-c1ccccc1 > 76.9 µM, O=C(CCn1c(=O)c2sccc2n(CC(=O)NCc2ccco2)c1=O)NCc1ccccc1 > 76.9 µM, c1ccc(-n2nnnc2OCCOc2nnnn2-c2ccccc2)cc1 > 76.9 µM, CC(=O)NC1CC2CCCC(C1)N2S(=O)(=O)c1cccc(F)c1 (stereo unspecified) > 76.9 µM, CN(CCCn1c(=S)[nH]c2ncccc2c1=O)Cc1ccccc1 > 76.9 µM, COc1cccc(C2=Nn3c(nnc3-c3ccccc3O)SC2)c1 > 76.9 µM, Cc1ccc(Cn2ccc(NC(=O)c3cc(-c4cccs4)on3)n2)cc1 > 76.9 µM, O=C(Nn1cnnc1)c1ccncc1 > 76.9 µM, C/C=C/c1ccc(OC)c(OC(C)=O)c1 > 76.9 µM, O=C(c1ccccc1-c1nc2ccccc2[nH]1)N1CCOCC1 > 76.9 µM, COc1cccc(-n2ccnc2SCC(=O)Nc2nccs2)c1 > 76.9 µM, O=C(COc1ncnc2ccccc12)NC(=O)NCc1ccccc1 > 76.9 µM, Cn1c(N2CCN(C(=O)Nc3ccc(C(F)(F)F)cc3)CC2)nc2ccccc21 > 76.9 µM, CN1CCCC(OC(=O)c2ccc3c(c2)OCCO3)C1 (stereo unspecified) > 76.9 µM, Cc1cc2c(c(Sc3ccccc3)n1)C(=O)OC2 > 76.9 µM, O=c1[nH]c(SCc2ccccc2Cl)nc2c1CCCC2 > 76.9 µM, O=C(Nc1ccc(N2C(=O)C3C4C=CC(C4)C3C2=O)cc1)Nc1cccnc1 (stereo unspecified) > 76.9 µM, Cc1nnc2c3ccccc3c(-c3ccccc3)nn12 > 76.9 µM, COc1ccc(CNC(=O)c2ccc(N3CCCC3=O)cc2)cc1 > 76.9 µM, CC(=O)c1cccc(S(=O)(=O)N2CCN(c3nc4cc(C)cc(C)c4cc3C#N)CC2)c1 > 76.9 µM, Nc1ccc(O)cc1C(=O)OCC(=O)C12CC3CC(CC(C3)C1)C2 > 76.9 µM, COc1ccccc1C1(O)CCN(CC(=O)Nc2c(C)nn(C)c2C)CC1 > 76.9 µM, COc1ccc(N=C2C(=O)Nc3c(C)cccc32)cc1 > 76.9 µM, CC(C)C(c1nnnn1Cc1cccs1)N1CCN(c2ccccc2)CC1 (stereo unspecified) > 76.9 µM, O=C(CSc1nc(-c2ccc(F)cc2)cs1)N1CCOCC1, O=C(Nc1nccs1)C1(S(=O)(=O)c2ccc(Cl)cc2)CC1 > 76.9 µM, Cc1sc2nc(C(C)C)nc(SCC(=O)NCc3ccco3)c2c1C > 76.9 µM, O=c1[nH]c2ccccc2nc1-c1cccs1 > 76.9 µM, O=C1CC(N2CCC(O)(c3ccc(Cl)cc3)CC2)C(=O)N1 (stereo unspecified) > 76.9 µM, CCOc1c(Br)cc(CNc2ncn[nH]2)cc1OC > 76.9 µM

Potency, active:
Cc1ccc2cc(C(c3nnnn3CC3CCCO3)N3CCCC4(CCCCC4)C3)c(=O)[nH]c2c1 (stereo unspecified) 10.1 µM
